# Results: the supplement of paper PMC3334620
# Over roughly 33,000 sequences, “E-score (-0.5 to 0.5)” has its median near -0.043; the highest 2% begin near 0.37. Some of the results follow.
# Molecular target: T1, Upc2 (UniProt Q12151)
# T1 sequence: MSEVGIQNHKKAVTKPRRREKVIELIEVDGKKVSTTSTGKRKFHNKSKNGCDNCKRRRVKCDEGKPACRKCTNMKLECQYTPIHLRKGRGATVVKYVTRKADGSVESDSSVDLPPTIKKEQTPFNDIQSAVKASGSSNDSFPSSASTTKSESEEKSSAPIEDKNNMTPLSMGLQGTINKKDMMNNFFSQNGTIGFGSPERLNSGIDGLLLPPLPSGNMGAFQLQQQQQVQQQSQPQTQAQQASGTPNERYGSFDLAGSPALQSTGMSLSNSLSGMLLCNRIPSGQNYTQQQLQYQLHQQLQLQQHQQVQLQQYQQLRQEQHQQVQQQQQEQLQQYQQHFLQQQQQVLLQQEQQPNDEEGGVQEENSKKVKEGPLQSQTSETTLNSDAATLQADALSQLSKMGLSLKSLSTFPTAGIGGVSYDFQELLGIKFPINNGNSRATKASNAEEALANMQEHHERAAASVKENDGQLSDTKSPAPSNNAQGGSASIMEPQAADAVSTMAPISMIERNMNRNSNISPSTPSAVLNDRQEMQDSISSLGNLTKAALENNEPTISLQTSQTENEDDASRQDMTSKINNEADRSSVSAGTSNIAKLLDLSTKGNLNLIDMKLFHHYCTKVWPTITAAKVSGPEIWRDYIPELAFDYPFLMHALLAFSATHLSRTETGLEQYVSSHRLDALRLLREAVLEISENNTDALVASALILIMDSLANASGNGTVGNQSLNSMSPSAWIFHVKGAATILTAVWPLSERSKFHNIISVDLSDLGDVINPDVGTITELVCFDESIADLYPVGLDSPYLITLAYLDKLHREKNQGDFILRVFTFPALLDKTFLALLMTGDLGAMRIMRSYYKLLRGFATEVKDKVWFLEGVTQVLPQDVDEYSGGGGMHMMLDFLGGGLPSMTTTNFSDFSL
# Assay: PBM E-score (8-mer binding enrichment) (E-score (-0.5 to 0.5)); higher = stronger / more preferred TF binding; most listed sequences are background and not binding sites
# Settings: protein concentration: 200 nM; construct: GST-full length
# Outline: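 Yeast transcription factors carrying a GST tag, as full-length proteins or DNA-binding domains, were produced by PURExpress in vitro transcription/translation. About 100-200 nM protein was applied to universal all-10-mer Agilent arrays, double-stranded by primer extension on fresh or once-stripped slides. Bound protein was detected with fluorescent anti-GST, and scans were normalised with masliner. The Universal PBM Analysis Suite gave each ungapped eight-base word, pooled with its reverse complement, an E-score, a modified Wilcoxon-Mann-Whitney statistic.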
row,Sequence,PBM E-score
1,ATTATCCC,-0.0232
2,ATGCGCAA,-0.0585
3,CGTGAAAG,0.109
4,ACTGCCCA,-0.081
5,GTAGCTAA,0.0478
6,CAGGCAGA,-0.159
7,CTAGCGGC,-0.228
8,GCCGCGTA,0.271
9,AGTAGGCC,-0.00345
10,AACTGGTC,0.0299
11,AGAGGGTG,-0.171
12,CATGCTCA,-0.172
13,AGCCTTCG,-0.145
14,CATGCCTC,-0.0206
15,CGAGGATA,0.169
16,ATCGTGGA,-0.0423
17,GAAGCGAC,0.154
18,AAGCCTAT,-0.0475
19,CTGCAGGC,-0.313
20,GCTAAACA,0.0407
21,CTATGCCA,-0.28
22,GGTTATAA,-0.0491
23,CAACCACG,-0.0859
24,AACCAAGG,-0.0086
25,GCCTCAAA,-0.0241

row,Sequence,PBM E-score
1,AAAGGCGT,-0.0984
2,ATCCTAGG,-0.224
3,CCTACAGA,-0.0651
4,ACCCCGGT,0.0534
5,CTGGAGCC,-0.258
6,AATGGGGT,-0.189
7,CGTAGTTC,0.0119
8,GGTTAAAC,0.232
9,GCCGAGGC,0.0355
10,ATTTGGGC,-0.121
11,CGAGCACG,0.171
12,AGCGAGAT,0.282
13,CTTAAGGC,-0.0149
14,ATCGCTTC,0.118
15,GCAAACCA,-0.0687
16,GACGTCTC,0.177
17,GAGTGAAA,-0.0499
18,TCCAACCA,-0.223
19,ATCTAGGG,-0.0219
20,ATCGTGCC,-0.0436
21,CAGATCTC,-0.0487
22,AGGCTCCC,-0.306
23,ACCAAAAA,-0.00478
24,AACCAAAC,0.171
25,AGCACACC,-0.182

row,Sequence,PBM E-score
1,ATTTAGGC,-0.097
2,CTGAGCAA,-0.0698
3,CCTTGCAC,0.0659
4,ATCCATGA,-0.188
5,CAGGACCA,-0.227
6,CCGTGGCC,-0.206
7,CTGAAAAG,-0.0688
8,GAACGTTC,0.281
9,GAGCGTAC,0.23
10,ATTGCCAC,-0.191
11,AGCGATTA,0.107
12,AGCCGAAG,-0.185
13,AGACTCCC,-0.27
14,TGCCTCAA,-0.256
15,ACCGCGGC,0.094
16,CAACCTGC,-0.0219
17,ACTACCGC,-0.108
18,AAGGCTCG,0.195
19,CCCTTCGG,-0.0969
20,AGACTCCT,-0.268
21,ATCTAGGC,-0.219
22,TCACGAAA,-0.0654
23,CGCCGGCC,-0.278
24,ACGCTTCG,0.245
25,CACTCCAC,-0.0427

row,Sequence,PBM E-score
1,AAGCAAAG,-0.208
2,AGATGCCC,-0.0733
3,CTGTGTCA,-0.268
4,GCAGTAGA,-0.083
5,ACTTTCTG,-0.183
6,CGACGAAC,0.151
7,CGCTTATA,0.307
8,CGTCTTTC,-0.0479
9,CTCTCCAC,-0.291
10,ACGTTTCT,0.0616
11,GCGAATGA,0.144
12,AATCCAAC,-0.154
13,CACCTCTG,-0.232
14,ACGACCCT,0.285
15,AGGTGGTA,-0.114
16,CCTATTAC,0.1
17,CGCGATCA,0.0471
18,CAAGGGTA,-0.127
19,CGATTGTA,0.149
20,ATTGCCTC,-0.052
21,AACACACG,0.0319
22,TGCACCAA,-0.247
23,TATGTTCA,0.0762
24,AGGCTGCC,-0.0713
25,CATACACC,-0.0184

row,Sequence,PBM E-score
1,AACGTTGA,0.0964
2,AGAGTTGC,-0.202
3,GGAAACAC,0.105
4,ACGTGGCT,-0.0627
5,GCAAGGCA,-0.1
6,CTCGATTA,0.305
7,CGGGCGTC,-0.0716
8,CGGAGAGC,-0.117
9,AGCTAAAT,0.103
10,GAAAACTA,0.147
11,ATATGGCC,-0.141
12,CACAGGCG,-0.208
13,AAGCCAAT,-0.0568
14,TAACAAAA,-0.0747
15,TCGTTGCA,0.3
16,GGCCACAC,-0.253
17,ACATTGTA,0.15
18,AATGCTTG,-0.147
19,TTGCTAAA,0.0398
20,GTCCGCCA,-0.302
21,GCAGATGC,-0.0873
22,GCTCCCAA,0.0061
23,AAACGTGA,0.165
24,AGCAGTTG,-0.245
25,CATTTCAG,-0.128

row,Sequence,PBM E-score
1,GCCGCAGA,-0.0394
2,GCTCGCCA,0.0791
3,ACTGGTAA,0.113
4,CTAACAAC,-0.00702
5,ACGTATAG,0.433
6,AACTTACC,0.0713
7,GACTAAAA,-0.0441
8,AGTCCCTA,-0.261
9,GGGTCAAA,0.115
10,ATGCGCAG,-0.0927
11,ATAGGATA,-0.0172
12,GTTTCCAA,0.0283
13,CAAGCCTC,-0.0986
14,TTCAGAAA,-0.164
15,AACAGGCC,-0.219
16,ATGTAATG,-0.0645
17,CCAAACCC,-0.0175
18,CGGGGCGC,-0.0354
19,ACGGCGGG,0.16
20,GGAGCAAA,-0.00615
21,CACGGAGA,-0.147
22,AACATGTT,-0.0112
23,CGGGCACA,-0.182
24,GCCGATAA,-0.223
25,CTCCAGGA,-0.192

row,Sequence,PBM E-score
1,CGACCGCC,0.151
2,TAAAATCA,0.0046
3,ACCTCAAT,-0.172
4,TAATTGGA,-0.00998
5,AAGTTTCG,0.111
6,AAGTGATA,-0.0783
7,AGTACTTG,0.101
8,CGAATATA,0.125
9,CGATCAGA,0.0644
10,AGAAACCG,0.142
11,GTCTGATA,-0.0611
12,GCAGGGGC,-0.197
13,CGGATAAA,0.337
14,CCCGACTA,0.0186
15,TATTGGAA,-0.0664
16,ACTTTACA,0.0242
17,AGGCTCGG,-0.0188
18,CAGCGCAC,-0.261
19,ATTGCCGG,0.0399
20,CGCTCTAC,0.0839
21,GCAATTTA,0.148
22,AGAGTGCC,-0.209
